Measured values as given in patent US11000038B2, “Pyridone compounds and agricultural and horticultural fungicides containing the same as active ingredients” (priority 2017, dated 2021).
Where two headings read alike, the source gives them in different places.

Columns and labels:
[1] = system: rice blast fungi (Magnaporthe grisea); type: in vivo; settings: for Test A control value: rice blast; for Test A control value class (rice blast): control value=100{1-(n/3)}
[2] = system: cucumber anthracnose fungi (Colletotrichum orbiculare); assay: Test Example H: cucumber anthracnose, spray treatment of cucumber plants; settings: for Test H control value: cucumber anthracnose, 6 to 10 days after inoculation; for Test H control value class (cucumber anthracnose): 2.5 ml/pot, cucumber Sagami Hanjiro, 6 to 10 days from inoculation
[3] = system: tomato late blight fungi (Phytophthora infestans); type: in vivo; settings: for Test F control value: tomato late blight; for Test F control value class (tomato late blight): control value=100{1-(n/3)}
[4] = spray treatment of tomato plants

Structure (SMILES)	Test A control value ([1]; spray treatment)	Test H control value ([2]; 250 ppm spray)	Test F control value ([3]; spray treatment)	Test A control value ([1]; spray treatment of rice plants)	Test H control value ([2]; 250 ppm spray (2.5 ml/pot))	Test F control value [3, 4]	further results
CCc1c(-c2c(F)cccc2F)n(-c2cccc(OC)c2C)cc(C)c1=O [Compound 551]	H (H shows the control value of more than 50%)	H (H shows the control value of more than 50%)	H (H shows the control value of more than 50%)				
CCc1c(-c2c(F)cc(F)cc2F)n(CC(C)C)cc(C)c1=O [Compound 231]				H (H shows the control value of more than 50%)	H (H shows the control value of more than 50%)	L (L shows the control value of 50% or less)	
COc1ccc(C)c(-n2cc(Br)c(=O)c(Br)c2-c2c(F)cc(F)cc2F)c1 [Compound 218]				H (H shows the control value of more than 50%)	H (H shows the control value of more than 50%)	L (L shows the control value of 50% or less)	
CCc1c(-c2c(F)cccc2F)n(-c2cccc(Cl)c2C)cc(C)c1=O [Compound 525]	H (H shows the control value of more than 50%)	H (H shows the control value of more than 50%)	L (L shows the control value of 50% or less)				
COc1cc(F)c(-c2c(Br)c(=O)c(Cl)cn2CCc2ccccc2)c(F)c1 [Compound 103]							Test A control value class (rice blast) ([1]; spray treatment of rice plants): H (H shows the control value of more than 50%); Test H control value class (cucumber anthracnose) ([2]; 250 ppm spray): L (L shows the control value of 50% or less); Test F control value class (tomato late blight) [3, 4]: L (L shows the control value of 50% or less)
O=c1c(Cl)cn(-c2ccc(F)cc2Cl)c(-c2c(F)cccc2F)c1Br [Compound 98]							Test A control value class (rice blast) ([1]; spray treatment of rice plants): H (H shows the control value of more than 50%); Test H control value class (cucumber anthracnose) ([2]; 250 ppm spray): H (H shows the control value of more than 50%); Test F control value class (tomato late blight) [3, 4]: L (L shows the control value of 50% or less)
CCCCn1cc(Cl)c(=O)c(Cl)c1-c1c(F)cc(F)cc1F [Compound 221]				H (H shows the control value of more than 50%)	H (H shows the control value of more than 50%)	H (H shows the control value of more than 50%)	
O=c1c(Br)cn(-c2ccccc2Cl)c(-c2c(F)cccc2F)c1Cl [Compound 54]							Test A control value class (rice blast) ([1]; spray treatment of rice plants): H (H shows the control value of more than 50%); Test H control value class (cucumber anthracnose) ([2]; 250 ppm spray): H (H shows the control value of more than 50%); Test F control value class (tomato late blight) [3, 4]: L (L shows the control value of 50% or less)
COc1cc(F)c(-c2c(Br)c(=O)c(Cl)cn2CC(C)(C)C)c(F)c1 [Compound 214]				H (H shows the control value of more than 50%)	H (H shows the control value of more than 50%)	H (H shows the control value of more than 50%)	
O=c1c(Cl)cn(-c2ccc(F)cc2Cl)c(-c2c(F)cccc2F)c1Cl [Compound 99]							Test A control value class (rice blast) ([1]; spray treatment of rice plants): H (H shows the control value of more than 50%); Test H control value class (cucumber anthracnose) ([2]; 250 ppm spray): H (H shows the control value of more than 50%); Test F control value class (tomato late blight) [3, 4]: L (L shows the control value of 50% or less)
COc1cccc(F)c1-c1c(C)c(=O)c(C)cn1-c1ccccc1 [Compound 591]	L (L shows the control value of 50% or less)	L (L shows the control value of 50% or less)	L (L shows the control value of 50% or less)				
CCc1c(-c2c(F)cc(OC)cc2F)n(CC(C)C)cc(C)c1=O [Compound 232]				H (H shows the control value of more than 50%)	H (H shows the control value of more than 50%)	L (L shows the control value of 50% or less)	
COc1cccc(-n2cc(Br)c(=O)c(Br)c2-c2c(F)cc(F)cc2F)c1C [Compound 367]				H (H shows the control value of more than 50%)	H (H shows the control value of more than 50%)	H (H shows the control value of more than 50%)	
CCCc1ccccc1-n1cc(Br)c(=O)c(Cl)c1-c1c(F)cc(F)cc1F [Compound 443]	H (H shows the control value of more than 50%)	H (H shows the control value of more than 50%)	L (L shows the control value of 50% or less)				
CCCCn1cc(Br)c(=O)c(Br)c1-c1c(F)cc(F)cc1F [Compound 234]				H (H shows the control value of more than 50%)	L (L shows the control value of 50% or less)	L (L shows the control value of 50% or less)	
Cc1cccc(F)c1-n1cc(Br)c(=O)c(Br)c1-c1ccc(F)cc1 [Compound 359]				L (L shows the control value of 50% or less)	H (H shows the control value of more than 50%)	L (L shows the control value of 50% or less)	

Structure (SMILES)	Test A control value ([1]; spray treatment)	Test H control value ([2]; 250 ppm spray)	Test F control value ([3]; spray treatment)	Test A control value ([1]; spray treatment of rice plants)	Test H control value ([2]; 250 ppm spray (2.5 ml/pot))	Test F control value [3, 4]	further results
O=c1c(Br)cn(-c2ccccc2)c(-c2c(F)cccc2Br)c1Cl [Compound 607]	H (H shows the control value of more than 50%)	H (H shows the control value of more than 50%)	L (L shows the control value of 50% or less)				
CC(C)C(C)n1cc(Br)c(=O)c(F)c1-c1c(F)cc(F)cc1F (stereo not drawn) [Compound 134]							Test A control value class (rice blast) ([1]; spray treatment of rice plants): H (H shows the control value of more than 50%); Test H control value class (cucumber anthracnose) ([2]; 250 ppm spray): H (H shows the control value of more than 50%); Test F control value class (tomato late blight) [3, 4]: L (L shows the control value of 50% or less)
COc1cc(F)c(-c2c(Cl)c(=O)c(Br)cn2-c2ccon2)c(F)c1 [Compound 131]							Test A control value class (rice blast) ([1]; spray treatment of rice plants): H (H shows the control value of more than 50%); Test H control value class (cucumber anthracnose) ([2]; 250 ppm spray): H (H shows the control value of more than 50%); Test F control value class (tomato late blight) [3, 4]: L (L shows the control value of 50% or less)
CC(C)n1cc(Cl)c(=O)c(Cl)c1-c1c(F)cc(F)cc1F [Compound 10]							Test A control value class (rice blast) ([1]; spray treatment of rice plants): H (H shows the control value of more than 50%); Test H control value class (cucumber anthracnose) ([2]; 250 ppm spray): H (H shows the control value of more than 50%); Test F control value class (tomato late blight) [3, 4]: L (L shows the control value of 50% or less)
CCc1c(-c2ccc(F)cc2Cl)n(-c2ccccc2)cc(Br)c1=O [Compound 621]	H (H shows the control value of more than 50%)	H (H shows the control value of more than 50%)	L (L shows the control value of 50% or less)				
CCc1cn(-c2ccccc2C)c(-c2c(F)cc(F)cc2F)c(C)c1=O [Compound 328]				H (H shows the control value of more than 50%)	H (H shows the control value of more than 50%)	L (L shows the control value of 50% or less)	
Cc1cn(-c2ccccc2)c(-c2ccc(F)cc2Br)c(C)c1=O [Compound 585]	L (L shows the control value of 50% or less)	H (H shows the control value of more than 50%)	L (L shows the control value of 50% or less)				
Cc1cccc(F)c1-n1cc(Br)c(=O)c(Cl)c1-c1ccc(F)cc1 [Compound 358]				L (L shows the control value of 50% or less)	L (L shows the control value of 50% or less)	L (L shows the control value of 50% or less)	
CCc1ccccc1-n1cc(C)c(=O)c(C)c1-c1c(F)cccc1F [Compound 485]	H (H shows the control value of more than 50%)	H (H shows the control value of more than 50%)	L (L shows the control value of 50% or less)				
Cc1ccccc1-n1cc(Br)c(=O)c(Br)c1-c1ccc(F)cc1 [Compound 236]				H (H shows the control value of more than 50%)	H (H shows the control value of more than 50%)	L (L shows the control value of 50% or less)	
CCc1c(-c2c(F)cc(F)cc2F)n(CC(C)C)cc(Cl)c1=O [Compound 224]				H (H shows the control value of more than 50%)	H (H shows the control value of more than 50%)	L (L shows the control value of 50% or less)	
CCc1c(-c2c(F)cccc2F)n(-c2cc(C)ccc2C)cc(Br)c1=O [Compound 539]	L (L shows the control value of 50% or less)	H (H shows the control value of more than 50%)	L (L shows the control value of 50% or less)				
Cc1c(Cl)cccc1-n1cc(C)c(=O)c(C)c1-c1c(F)cc(F)cc1F [Compound 461]	H (H shows the control value of more than 50%)	H (H shows the control value of more than 50%)	L (L shows the control value of 50% or less)				
Cc1cn(-c2ccccc2)c(-c2c(F)cc(F)cc2F)c(C)c1=O [Compound 441]	H (H shows the control value of more than 50%)	H (H shows the control value of more than 50%)	L (L shows the control value of 50% or less)				
O=c1c(Br)cn(-c2ccccc2Br)c(-c2c(F)cc(F)cc2F)c1Br [Compound 44]							Test A control value class (rice blast) ([1]; spray treatment of rice plants): H (H shows the control value of more than 50%); Test H control value class (cucumber anthracnose) ([2]; 250 ppm spray): H (H shows the control value of more than 50%); Test F control value class (tomato late blight) [3, 4]: L (L shows the control value of 50% or less)
Cc1ccc(C)c(-n2cc(C)c(=O)c(C)c2-c2ccccc2)c1 [Compound 404]	L (L shows the control value of 50% or less)	L (L shows the control value of 50% or less)	L (L shows the control value of 50% or less)				
